According to patent publication EP4681729A1:

B1: A17h1_hIgG4 (Fc fusion)
chain: EVQLQESGGGLVQPGGSLRLSCTASGLTFSDYSMSWYRQAPGKGRELVAIISGSGVIAHYVDSVKGRFTISRDNSKNTVYLQMRSLTPEDRAVYYCRAVSDWDDYWGQGTQVTVSS[gap - human IgG4 Fc with S228P (EU numbers)]
B2: A17m09_hIgG4 (Fc fusion)
chain: EVQLQESGGGLVQPGGSLRLSCTASGLTFSDYSMSWYRQAPGKGRELVAIISGSGVITHYVDSVKGRFTISRDNAKNTVYLQMRSLTPEDRAVYYCRAVSDWEDYWGQGTQVTVSS[gap - human IgG4 Fc with S228P (EU numbers)]
B3: A17m0901_hIgG4 (Fc fusion)
VHH-Fc: EVQLVESGGGLVQPGGSLRLSCAASGFTFSDYSMSWYRQAPGKGRELVAIISGSGVITHYVDSVKGRFTISRDNAKNTLYLQMRSLRAEDTAVYYCRAVSDWEDYWGQGTQVTVSS[gap - human IgG4 Fc with S228P (EU numbers)]
B4: A17m0902_hIgG4 (Fc fusion)
VHH-Fc: EVQLVESGGGLVQPGGSLRLSCAASGLTFSDYSMSWYRQAPGKGRELVAIISGSGVITHYVDSVKGRFTISRDNAKNTLYLQMRSLRAEDTAVYYCRAVSDWEDYWGQGTQVTVSS[gap - human IgG4 Fc with S228P (EU numbers)]

Molecular target: cynomolgus monkey PD-1 antigen protein (Sino Biological, 90311-C08H) (cynomolgus monkey) (UniProt B0LAJ3)
Assay: SPR (Biacore 8k), antibody captured by anti-human IgG (Fc), PD-1 as analyte

Sequence of UniProt B0LAJ3 (B0LAJ3 entry or part of it C08H C08H limits assumed, form in doubt): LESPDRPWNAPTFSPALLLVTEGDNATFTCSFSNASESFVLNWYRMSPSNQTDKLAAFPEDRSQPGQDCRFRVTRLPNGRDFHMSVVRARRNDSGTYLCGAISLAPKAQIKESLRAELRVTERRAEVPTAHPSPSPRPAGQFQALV

Binder | Kd [nM] | koff [s⁻¹] | kon [M⁻¹ s⁻¹]
B1 | 1.82 | 0.000807 | 444000
B2 | 1.75 | 0.000843 | 481000
B3 | 3.32 | 0.00113 | 340000
B4 | 3.28 | 0.00108 | 328000
